Measurements reported in PMC11995724, “Antibiotic target discovery by integrated phenotypic and activity-based profiling of electrophilic fragments” (Cell chemical biology, 2025).
In all, about 3,200 compounds went through this assay and about 110 (3.4%) showed an effect of 50% or more. The list shows a part of the results.

What follows are molecules tested on T1, V. cholerae SAD30. Details: relative growth, OD600, LB; 25 µM; inhibitor.
T1 construct: SAD30
Set-up: species or system S. aureus MSSA476 (TSB) or V. cholerae SAD30 (LB); 384-well bacterial growth screen at 25 uM, OD600 relative to DMSO control
`CC(C)CN(C(=O)CCl)c1cnn(-c2ccccn2)c1` [5-A12, 2-chloro-N-(2-methylpropyl)-N-[1-(pyridin-2-yl)-1H-pyrazol-4-yl]acetamide] was tested, and the “% of control remaining” value was 93.8111%.
For `C=CC(=O)N(CC)CC(=O)N1CCc2[nH]nc(C(F)(F)F)c2C1` [3-A14, N-ethyl-N-{2-oxo-2-[3-(trifluoromethyl)-1H,4H,5H,6H,7H-pyrazolo[4,3-c]pyridin-5-yl]ethyl}prop-2-enamide], the “% of control remaining” value was 113.086%.
For `Cn1nccc1CN1C[C@@H](F)C[C@H]1CNC(=O)CCl` [5-C04, 2-chloro-N-{[(2S,4S)-4-fluoro-1-[(1-methyl-1H-pyrazol-5-yl)methyl]pyrrolidin-2-yl]methyl}acetamide], the “% of control remaining” value was 104.571%.
For `Cc1ccc(NC(=O)CCl)c([N+](=O)[O-])c1` [4-A07, 2-chloro-N-(4-methyl-2-nitrophenyl)acetamide], the “% of control remaining” value was 105.068%.
In the case of `O=C(CCl)N1c2ccccc2SCC1c1ccccc1` (stereo not drawn) [4-M18, 2-chloro-1-(3-phenyl-3,4-dihydro-2H-1,4-benzothiazin-4-yl)ethan-1-one], the “% of control remaining” value is reported as 106.966%.
In the case of `C=CC(=O)NC1Cc2ccccc2C1=O` (stereo not drawn) [1-H21, N-(1-oxo-2,3-dihydro-1H-inden-2-yl)prop-2-enamide], the “% of control remaining” value is reported as 95.0673%.
In the case of `C=CC(=O)NC1CCN(c2nc(C3CC3)cc(C(F)(F)F)n2)CC1` [1-L03, N-{1-[4-cyclopropyl-6-(trifluoromethyl)pyrimidin-2-yl]piperidin-4-yl}prop-2-enamide], the “% of control remaining” value is reported as 94.1704%.
In the case of `C=CC(=O)N1CCC(NC(C)=O)C1` (stereo not drawn) [1-B19, N-[1-(prop-2-enoyl)pyrrolidin-3-yl]acetamide], the “% of control remaining” value is reported as 89.3871%.
In the case of `C=CC(=O)NCC1(c2ccnn2C)CC1` [2-P15, N-{[1-(1-methyl-1H-pyrazol-5-yl)cyclopropyl]methyl}prop-2-enamide], the “% of control remaining” value is reported as 94.9821%.
With `C=CC(=O)NCC(C)(C)c1coc(-c2ccccc2)n1` [3-A03, N-[2-methyl-2-(2-phenyl-1,3-oxazol-4-yl)propyl]prop-2-enamide] the “% of control remaining” value was 116.791%.
In the case of `Cc1c(NC(=O)C(C)Cl)c(=O)n(-c2ccccc2)n1C` (stereo not drawn) [6-E06, 2-chloro-N-(1,5-dimethyl-3-oxo-2-phenyl-2,3-dihydro-1H-pyrazol-4-yl)propanamide], the “% of control remaining” value is reported as 89.9422%.
With `N#CC(=Cc1ccc(N2CCCC2)cc1)C(=O)N1CCC(C(N)=O)CC1` [9-K12, 1-(2-cyano-2-{[4-(pyrrolidin-1-yl)phenyl]methylidene}acetyl)piperidine-4-carboxamide] the “% of control remaining” value was 76.4786%.
For `C=CC(=O)NCc1ccc(C(=O)N2CCCC(c3nnc[nH]3)C2)cc1` (stereo not drawn) [3-E19, N-({4-[3-(4H-1,2,4-triazol-3-yl)piperidine-1-carbonyl]phenyl}methyl)prop-2-enamide], the “% of control remaining” value was 95.2656%.
With `O=C(CCl)Cc1ccc(F)cc1F` [10-G17, 1-chloro-3-(2,4-difluorophenyl)propan-2-one] the “% of control remaining” value was 31.4826%.
In the case of `C=CC(=O)Nc1cc2c(cc1Sc1ccccc1)OCCO2` [1-M13, N-[7-(phenylsulfanyl)-2,3-dihydro-1,4-benzodioxin-6-yl]prop-2-enamide], the “% of control remaining” value is reported as 69.8057%.
`CC(=O)Nc1cccc(N2C(=O)C=CC2=O)c1` [10-D09, N-[3-(2,5-dioxo-2,5-dihydro-1H-pyrrol-1-yl)phenyl]acetamide] was tested, and the “% of control remaining” value was 85.564%.
With `CC(Cl)C(=O)NCCS(=O)(=O)Nc1ccccn1` (stereo not drawn) [7-L05, 2-chloro-N-{2-[(pyridin-2-yl)sulfamoyl]ethyl}propanamide] the “% of control remaining” value was 83.7932%.
`C=CC(=O)NCc1ccc(S(=O)(=O)NC2CC2)cc1` [2-P19, N-{[4-(cyclopropylsulfamoyl)phenyl]methyl}prop-2-enamide] was tested, and the “% of control remaining” value was 96.8349%.
For `O=C(CCl)NCCCC1CCCCC1` [6-O05, 2-chloro-N-(3-cyclohexylpropyl)acetamide], the “% of control remaining” value was 100.256%.
For `CN(C)c1ccc(C=C(C#N)C(=O)N2CCC2)cc1` [9-A14, 2-(azetidine-1-carbonyl)-3-[4-(dimethylamino)phenyl]prop-2-enenitrile], the “% of control remaining” value was 80.5574%.
For `O=C(CCl)NC1CN(S(=O)(=O)c2ccc3c(c2)OCCO3)C1` [5-I16, 2-chloro-N-[1-(2,3-dihydro-1,4-benzodioxine-6-sulfonyl)azetidin-3-yl]acetamide], the “% of control remaining” value was 98.6866%.
`Cc1ccc(C=C(C#N)C(=O)Nc2ccc(C(=O)O)cc2)s1` [8-E04, 4-[2-cyano-3-(5-methylthiophen-2-yl)prop-2-enamido]benzoic acid] was tested, and the “% of control remaining” value was 80.8294%.
In the case of `N#CCCN(Cc1ccco1)C(=O)CCl` [5-D20, 2-chloro-N-(2-cyanoethyl)-N-[(furan-2-yl)methyl]acetamide], the “% of control remaining” value is reported as 100.368%.
With `C=CC(=O)N1CCC(C(=O)Nc2c[nH]c(=O)c(C)c2)CC1` [3-J05, N-(5-methyl-6-oxo-1,6-dihydropyridin-3-yl)-1-(prop-2-enoyl)piperidine-4-carboxamide] the “% of control remaining” value was 96.6771%.
With `C=CC(=O)NC1CCCN(C2CCCCC2)C1=O` (stereo not drawn) [3-O18, N-(1-cyclohexyl-2-oxopiperidin-3-yl)prop-2-enamide] the “% of control remaining” value was 105.499%.
With `N#CC(=Cc1cccnc1)C(=O)NCCc1ccccc1` [9-K14, 2-cyano-N-(2-phenylethyl)-3-(pyridin-3-yl)prop-2-enamide] the “% of control remaining” value was 86.6757%.
`C=CC(=O)Nc1cn(CCC)cn1` [3-B10, N-(1-propyl-1H-imidazol-4-yl)prop-2-enamide] was tested, and the “% of control remaining” value was 108.146%.
For `CN1C(=CC=C(C#N)C(=O)NCC2CCCO2)C(C)(C)c2ccccc21` (stereo not drawn) [8-M04, 2-cyano-N-[(oxolan-2-yl)methyl]-4-(1,3,3-trimethyl-2,3-dihydro-1H-indol-2-ylidene)but-2-enamide], the “% of control remaining” value was 70.6322%.
In the case of `O=C(CCl)Nc1ccc(F)c(F)c1F` [4-M05, 2-chloro-N-(2,3,4-trifluorophenyl)acetamide], the “% of control remaining” value is reported as 104.033%.
For `C=CC(=O)NC1CCn2cccc2C1` (stereo not drawn) [3-N11, N-(5,6,7,8-tetrahydroindolizin-7-yl)prop-2-enamide], the “% of control remaining” value was 100.382%.
With `C=CC(=O)N1CC[C@H](NS(C)(=O)=O)C1` [2-H21, N-[(3S)-1-(prop-2-enoyl)pyrrolidin-3-yl]methanesulfonamide] the “% of control remaining” value was 102.239%.
For `N#CC(=CC(Cl)=Cc1ccccc1)C(=O)NC1CCCCC1` [8-D17, 4-chloro-2-cyano-N-cyclohexyl-5-phenylpenta-2,4-dienamide], the “% of control remaining” value was 72.6717%.
`CC(Cl)C(=O)N(C)C1CCN(c2ccccn2)CC1` (stereo not drawn) [6-J20, 2-chloro-N-methyl-N-[1-(pyridin-2-yl)piperidin-4-yl]propanamide] was tested, and the “% of control remaining” value was 92.5206%.
In the case of `C=CC(=O)N(Cc1cc(Cl)ccc1OC)C1CCCOCC1` (stereo not drawn) [2-C07, N-[(5-chloro-2-methoxyphenyl)methyl]-N-(oxepan-4-yl)prop-2-enamide], the “% of control remaining” value is reported as 87.2624%.
With `Cc1cc(C)c(NC(=O)C(C)Cl)c(C)c1` (stereo not drawn) [5-K15, 2-chloro-N-(2,4,6-trimethylphenyl)propanamide] the “% of control remaining” value was 88.095%.
`Cc1ccc(C2CC(c3cccs3)=NN2C(=O)CCl)cc1` (stereo not drawn) [4-I22, 2-chloro-1-[5-(4-methylphenyl)-3-(thiophen-2-yl)-4,5-dihydro-1H-pyrazol-1-yl]ethan-1-one] was tested, and the “% of control remaining” value was 122.838%.
With `C=CC(=O)NC1CCN(Cc2ccc(Cl)cc2)CC1` [1-N08, N-{1-[(4-chlorophenyl)methyl]piperidin-4-yl}prop-2-enamide] the “% of control remaining” value was 104.024%.
With `C=CC(=O)NC(C)C(c1ccccc1Cl)n1cccn1` (stereo not drawn) [2-J05, N-[1-(2-chlorophenyl)-1-(1H-pyrazol-1-yl)propan-2-yl]prop-2-enamide] the “% of control remaining” value was 86.7992%.
`N#CC(=Cc1csc(COc2ccccc2)n1)C(N)=O` [9-B12, 2-cyano-3-[2-(phenoxymethyl)-1,3-thiazol-4-yl]prop-2-enamide] was tested, and the “% of control remaining” value was 84.9082%.
In the case of `CC(Cl)C(=O)NCc1ccccc1S(=O)(=O)N1CCOCC1` (stereo not drawn) [7-K15, 2-chloro-N-{[2-(morpholine-4-sulfonyl)phenyl]methyl}propanamide], the “% of control remaining” value is reported as 78.11%.
With `CN(C)c1ccc(C=C(C#N)C(=O)Nc2nccs2)cc1` [8-E06, 2-cyano-3-[4-(dimethylamino)phenyl]-N-(1,3-thiazol-2-yl)prop-2-enamide] the “% of control remaining” value was 77.9742%.
`CC(Cl)C(=O)N1CCN(CCOc2ccc3c(c2)CCC3)CC1` (stereo not drawn) [6-H17, 2-chloro-1-{4-[2-(2,3-dihydro-1H-inden-5-yloxy)ethyl]piperazin-1-yl}propan-1-one] was tested, and the “% of control remaining” value was 64.6128%.
`C=CC(=O)NCc1csc(C(C)(C)C)n1` [2-C09, N-[(2-tert-butyl-1,3-thiazol-4-yl)methyl]prop-2-enamide] was tested, and the “% of control remaining” value was 91.5854%.
For `CCOc1ccc(N2C(=O)C=CC2=O)cc1` [10-A14, 1-(4-ethoxyphenyl)-2,5-dihydro-1H-pyrrole-2,5-dione], the “% of control remaining” value was 23.3781%.
With `CC1(C)CN(C(=O)CCl)CCO1` [6-C05, 2-chloro-1-(2,2-dimethylmorpholin-4-yl)ethan-1-one] the “% of control remaining” value was 95.0991%.
